Assay results published in PubChem BioAssay AID504832 (National Center for Advancing Translational Sciences (NCATS), 2011).
Several values for one entry are separate records, joined by “and”; a condition that tells them apart may be missing. Identical values can stand only once. In all, about 310,000 compounds went through this assay and about 18,000 (5.8%) were called active. Inconclusive results, whose numbers are uncertain, are shown with a selection of clear calls. The call rests on the fitted dose curve; in most records, active means well fitted inhibition curve with a large enough effect; inconclusive means small, poorly fitted or top-dose-only effect, or another doubt; inactive means no such curve, though single readings can be large or run the other way. No potency is given beside an inconclusive call; the fits are too rough.

Assay: Primary qHTS for delayed death inhibitors of the malarial parasite plastid, 48 hour incubation
Details: P. falciparum luciferase growth in erythrocytes; series mostly up to 28.7 µM
Summary of the method: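 Luciferase-expressing P. falciparum in infected erythrocytes (2% hematocrit, 0.1% parasitemia final) in RPMI 1640/0.5% Albumax were exposed to compound for 48 hours at 37 C, 5% CO2; growth read as luminescence.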
Potency means the concentration at half of the fitted maximal effect; tags describe the fitted curve by direction and shape.

| Structure (SMILES) | Potency |
| --- | --- |
| CCOC(=O)c1sc2nc(N3CCOCC3)c3c(c2c1N)CCC3 | inconclusive [inhibitor, single point] |
| C=CCn1c(=O)c2ccccc2n2c(SCc3nc(N)nc(Nc4ccccc4C)n3)nnc12 | active: 8.28 µM |
| Cc1cccc(C(=O)NCCC(=O)Nc2nc(C)c(Cc3ccc4c(c3)OCO4)s2)c1 | inactive |
| Cc1ccc(NC(=O)O/N=C/c2c(C)nn(C(C)(C)C)c2C)cc1Cl | inconclusive [inhibitor, single point] |
| Nc1nc(CSCc2ccccc2)nc(N2CCOCC2)n1 | inactive |
| CCOc1ccccc1N1CCN(Cc2ccc(OC)c(OC)c2OC)CC1 | inconclusive [inhibitor, partial curve, poor fit] |
| Cn1nccc1NC(=O)CC(CC(=O)O)c1ccccc1 (configuration not stated) | inconclusive [inhibitor, full curve, poor fit] |
| Cc1ccc2nc(Nc3ccccc3)c(/C=N/O)c(=O)n2c1 | inconclusive [inhibitor, single point] |
| CC(C)C(=O)NNC(=O)c1cc2sccc2s1 | inactive |
| CSCCC(NC(=O)c1cccc(S(=O)(=O)N2CCOCC2)c1)C(=O)Nc1ccc(F)cc1 (configuration not stated) | inconclusive [inhibitor, partial curve, poor fit] |
| COc1cc(/C=C/C(=O)c2c(O)n(CCc3ccccc3)c(=O)[nH]c2=O)ccc1O | inactive |
| Cc1ccc2nc(N3CC(C)OC(C)C3)nc(-c3ccccc3)c2c1 (configuration not stated) | inconclusive [inhibitor, single point] |
| O=C(C[n+]1cc(-c2ccc(Cl)cc2)n2c1CCC2)Nc1nc(-c2ccccc2)cs1 | inconclusive [inhibitor, partial curve] |
| COc1ccc2c(c1)c1nnc(SCC(=O)N3C(C)CCCC3C)nc1n2C (configuration not stated) | inconclusive [inhibitor, single point] |
| Cc1ccc(N=C(NOC(=O)c2ccccc2)c2nonc2N)c(C)c1 | inconclusive [inhibitor, full curve] |
| Cc1c(C)c2ccc(OCC(=O)N3CCC(C(=O)O)(c4ccccc4)CC3)cc2oc1=O | inconclusive [inhibitor, partial curve, poor fit] |
| Cc1ccccc1NC(=O)CN1CCC(n2nnc3ccccc32)CC1 | inconclusive [inhibitor, partial curve, poor fit] |
| O=C(c1ccc2nc(Cc3cccc(Cl)c3)oc2c1)N1CCC(CO)CC1 | inconclusive [inhibitor, partial curve] |
| COc1cc(C(=O)NCCC(c2ccccc2)c2ccccc2)cc(OC)c1OC | inconclusive [inhibitor, single point] |
| CCC(C)[C@H](NC(=O)[C@@H]1Cc2ccccc2CN1)C(=O)Nc1ccc2c(c1)OCO2 (some centres not stated) | inconclusive [inhibitor, partial curve] |
| COc1ccc2cc(S(=O)(=O)N3CCCCC3)ccc2c1S(=O)(=O)N1CCCCC1 | inconclusive [inhibitor, single point] |
| CCCCCCCCCCOC(=O)Cn1c(COc2ccc(Cl)cc2)[n+](C)c2ccccc21 | inconclusive [inhibitor, single point] |
| O=C(COC(=O)Cc1n[nH]c(=O)c2ccccc12)Nc1ccc(Cl)cc1F | inactive |

| Structure (SMILES) | Potency |
| --- | --- |
| CC(NC(=O)CCCCCNC(=O)N1CCn2c1nc1ccccc12)c1ccccc1 (configuration not stated) | inconclusive [inhibitor, partial curve] |
| Cc1ccc(C(=O)NCC(=O)NCC(=O)OCC(=O)c2ccc(F)cc2)cc1 | inactive |
| COc1ccc(C(=O)NCC(=O)NCC(=O)OCC(=O)c2ccc(C)cc2)cc1 | inactive |
| C/C(=C\C(=O)O)C12CC3CC(CC(C3)C1)C2 | inactive |
| COc1ccccc1OCCNC(=O)c1cc(F)c(F)cc1Cl | inactive |
| COc1ccc(N2CCN(c3ncnc4scc(-c5ccc(C)cc5)c34)CC2)cc1 | inconclusive [inhibitor, partial curve] |
| NC(=S)NN=C1c2ccccc2-c2ccccc21 | inconclusive [inhibitor, single point] |
| O=C(Cc1cccs1)N/N=C/c1ccco1 | inactive |
| CCOc1ccc(C(=O)Nc2c3c(nn2C(C)(C)C)CSC3)cc1OCC | inconclusive [inhibitor, single point] |
| CCN(C(=O)c1cccc(F)c1)c1ccccc1C | inconclusive [inhibitor, partial curve, poor fit] |
| CCc1ccc2[nH]c(=O)c(CN(CCN(C)C)C(=O)Nc3ccccc3OC)cc2c1 | inconclusive [inhibitor, single point] |
| CC(C)c1c(C(=O)N/N=C/c2ccc(OCc3ccc(F)cc3)cc2)nnn1-c1nonc1N | inconclusive [inhibitor, partial curve, poor fit] |
| CC(C)(C)C(=O)NC(=S)NNC(=O)c1ccncc1 | inconclusive [inhibitor, single point] |
| CC(=O)NC(c1cc(Cl)c2cccnc2c1O)C1CC1 (configuration not stated) | active: 4.15 µM |
| COC(=O)c1c(Cc2ccccc2Cl)c[nH]c1C | inconclusive [inhibitor, partial curve] |
| COc1ccccc1C(=O)Nc1sc(C(=O)N2CCCC2)c(C)c1C#N | inconclusive [inhibitor, full curve] |
| CCc1ccc(N2C(=O)C3C4C=CC(CC4)C3C2=O)cc1 (configuration not stated) | inconclusive [inhibitor, single point] |
| CSc1ccc(-c2nc(O)c3cnccn23)cc1 | inactive |
| CCc1ccccc1N(CC)C(=O)CCc1nc(-c2ccc(C)cc2)no1 | inconclusive [inhibitor, partial curve, poor fit] |
| COc1cc(C(C(=O)NC(C)(C)C)N(Cc2ccc3c(c2)OCO3)C(=O)c2cnccn2)cc(OC)c1OC (configuration not stated) | inconclusive [inhibitor, partial curve, poor fit] |
| C#C[C@]1(O)CC[C@H]2[C@@H]3CCC4=CCCC[C@@H]4[C@H]3C(=C)C[C@@]21CC | inconclusive [inhibitor, single point] |
| Cc1ccc2cc(C#N)c(NCc3ccco3)nc2c1 | inactive |
| COc1ccc(CC(NC(C)=O)C(=O)NC2CCN(c3c4c(nc5ncnn35)CCC4)CC2)cc1 (configuration not stated) | inconclusive [inhibitor, partial curve] |

| Structure (SMILES) | Potency |
| --- | --- |
| COc1cccc(C(=O)N2CCC(n3nccc3NC(=O)C(OC)c3ccccc3)CC2)c1 (configuration not stated) | inconclusive [inhibitor, partial curve] |
| CCOc1ccc(NC(=O)CN2CCN(CC(=O)Nc3cc(OC)cc(OC)c3)CC2)cc1 | inconclusive [inhibitor, partial curve] |
| CCN(CC(=O)Nc1cc(Cl)ccc1C)c1ncnc2sc(C)c(C)c12 | inconclusive [inhibitor, single point] |
| O=C(NCc1ccc(Cl)cc1)c1ccc(NC(=O)C2CCCO2)cc1 (configuration not stated) | inactive |
| CCOc1cc(NC(=S)NCc2ccco2)c(OCC)cc1NC(=O)c1ccco1 | inconclusive [inhibitor, single point] |
| Cc1c(/C=N\NC(=O)c2c[nH]c3ccccc23)cnn1C | inactive |
| CSc1cccc(CN2CCCC(CO)(Cc3cccc(Cl)c3)C2)c1 (configuration not stated) | inconclusive [inhibitor, partial curve] |
| O=C(COC(=O)c1cncc(Br)c1)NCc1ccc2c(c1)OCO2 | inconclusive [inhibitor, single point] |
| Cc1cc(C(=O)NNc2ccccc2F)no1 | inconclusive [inhibitor, partial curve, poor fit] |
| Oc1ccc(Cl)cc1C1=Nc2ccccc2N=C(c2ccco2)C1 | inconclusive [inhibitor, single point] |
| COCCn1c(C)cc(C(=O)COC(=O)c2[nH]c(C)c(C(C)=O)c2C)c1C | inconclusive [inhibitor, partial curve] |
| CCCc1c(C(=O)NNc2ccccc2OC)cnn1-c1ccccc1 | inconclusive [inhibitor, single point] |
| O=c1[nH]c(C2CCCN(S(=O)(=O)c3ccccc3)C2)nc2c1nnn2Cc1cccc(Cl)c1 (configuration not stated) | inconclusive [inhibitor, partial curve] |
| Nc1c(C(=O)NCCc2ccccc2)nnn1Cc1ccccc1 | inactive |
| Cc1noc(C)c1COC(=O)CCOc1ccccc1 | inactive |
| CCOC(=O)CNC1CC(=O)N(c2ccc(Br)cc2)C1=O (configuration not stated) | inconclusive [inhibitor, full curve, poor fit] |
| CCOc1ccc(S(=O)(=O)N2CCCCC2)cc1NC(=O)C1=COCCO1 | inconclusive [inhibitor, single point] |
| O=C(CN1C2CCCC1CC(NC(=O)C1CCCCC1)C2)Nc1ccccc1 (configuration not stated) | inconclusive [inhibitor, partial curve] |
| COc1ccc(C(=O)NC(C)Cc2cnccn2)cc1OC1CCN(C(C)C)CC1 (configuration not stated) | inconclusive [inhibitor, single point] |
| CCOC(=O)Nc1ccc(NCc2ccc(F)cc2)nc1N | active: 10.7 µM and active: 13.1 µM |
| O=S(=O)(c1ccc(Cl)cc1)N1CN(CC2CCCO2)c2nc3ccccc3nc21 (configuration not stated) | inconclusive [inhibitor, single point] |
